T1: IL-1R (IL-1 Receptor) (UniProt P14778 18-569, limits assumed)
T1 sequence (looked up): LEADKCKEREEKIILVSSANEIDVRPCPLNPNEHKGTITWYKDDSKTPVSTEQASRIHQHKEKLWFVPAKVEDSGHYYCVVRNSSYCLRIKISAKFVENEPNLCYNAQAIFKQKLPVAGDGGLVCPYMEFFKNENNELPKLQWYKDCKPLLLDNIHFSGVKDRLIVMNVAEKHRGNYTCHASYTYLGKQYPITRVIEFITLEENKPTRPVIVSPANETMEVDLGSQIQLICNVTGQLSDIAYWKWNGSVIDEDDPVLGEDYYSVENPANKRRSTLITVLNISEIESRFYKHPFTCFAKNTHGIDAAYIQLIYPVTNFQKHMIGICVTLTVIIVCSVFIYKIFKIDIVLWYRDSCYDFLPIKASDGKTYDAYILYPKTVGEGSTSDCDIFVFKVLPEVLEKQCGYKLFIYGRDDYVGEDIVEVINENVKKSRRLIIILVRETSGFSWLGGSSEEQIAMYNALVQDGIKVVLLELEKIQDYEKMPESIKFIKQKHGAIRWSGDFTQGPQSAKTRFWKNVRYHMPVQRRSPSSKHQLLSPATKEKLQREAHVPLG

B1: CD8 VHH_5GGS_Fc_hole + Fc-knob_20GGS_IL1α delta 1-6_N29A_C141S (Fc fusion)
chain 1: DVQLQESGGGLVQPGGSLRLSCAASGSIFSINVMGWYRQTPGKERELVAKITNFGITSYADSAQGRFTISRGNAKNTVYLQMNSLKPEDTAVYYCNLDTTGWGPPPYQYWGQGTQVTVSSGGSGGSGGSGGSGGSDKTHTCPPCPAPEAAGGPSVFLFPPKPKDTLMISRTPEVTCVVVDVSHEDPEVKFNWYVDGVEVHNAKTKPREEQYNSTYRVVSVLTVLHQDWLNGKEYKCQVSNKALPAPIEKTISKAKGQPREPQVCTLPPSRDELTKNQVSLSCAVKGFYPSDIAVEWESNGQPENNYKTTPPVLDSDGSFFLVSKLTVDKSRWQQGNVFSCSVMHEALHNHYTQKSLSLSPGK
chain 2: [letters of human IgG1 Fc with changes not shown]GGSGGSGGSGGSGGSGGSGGSGGSGGSGGSGGSGGSGGSGGSGGSGGSGGSGGSGGSGGSLSNVKYNFMRIIKYEFILNDALAQSIIRANDQYLTAAALHNLDEAVKFDMGAYKSSKDDAKITVILRISKTQLYVTAQDEDQPVLLKEMPEIPKTITGSETNLLFFWETHGTKNYFTSVAHPNLFIATKQDYWVSLAGGPPSITDFQILENQA
B2: CD8 VHH_5GGS_Fc_hole + Fc-knob_20GGS_IL1α delta 1-6_K100A (Fc fusion)
chain 1: DVQLQESGGGLVQPGGSLRLSCAASGSIFSINVMGWYRQTPGKERELVAKITNFGITSYADSAQGRFTISRGNAKNTVYLQMNSLKPEDTAVYYCNLDTTGWGPPPYQYWGQGTQVTVSSGGSGGSGGSGGSGGSDKTHTCPPCPAPEAAGGPSVFLFPPKPKDTLMISRTPEVTCVVVDVSHEDPEVKFNWYVDGVEVHNAKTKPREEQYNSTYRVVSVLTVLHQDWLNGKEYKCQVSNKALPAPIEKTISKAKGQPREPQVCTLPPSRDELTKNQVSLSCAVKGFYPSDIAVEWESNGQPENNYKTTPPVLDSDGSFFLVSKLTVDKSRWQQGNVFSCSVMHEALHNHYTQKSLSLSPGK
chain 2: [letters of human IgG1 Fc with changes not shown]GGSGGSGGSGGSGGSGGSGGSGGSGGSGGSGGSGGSGGSGGSGGSGGSGGSGGSGGSGGSLSNVKYNFMRIIKYEFILNDALNQSIIRANDQYLTAAALHNLDEAVKFDMGAYKSSKDDAKITVILRISKTQLYVTAQDEDQPVLLKEMPEIPATITGSETNLLFFWETHGTKNYFTSVAHPNLFIATKQDYWVCLAGGPPSITDFQILENQA
B3: CD8 VHH_5GGS_Fc_hole + Fc-knob_20GGS_IL1α delta 1-6_M15A (Fc fusion)
chain 1: DVQLQESGGGLVQPGGSLRLSCAASGSIFSINVMGWYRQTPGKERELVAKITNFGITSYADSAQGRFTISRGNAKNTVYLQMNSLKPEDTAVYYCNLDTTGWGPPPYQYWGQGTQVTVSSGGSGGSGGSGGSGGSDKTHTCPPCPAPEAAGGPSVFLFPPKPKDTLMISRTPEVTCVVVDVSHEDPEVKFNWYVDGVEVHNAKTKPREEQYNSTYRVVSVLTVLHQDWLNGKEYKCQVSNKALPAPIEKTISKAKGQPREPQVCTLPPSRDELTKNQVSLSCAVKGFYPSDIAVEWESNGQPENNYKTTPPVLDSDGSFFLVSKLTVDKSRWQQGNVFSCSVMHEALHNHYTQKSLSLSPGK
chain 2: [letters of human IgG1 Fc with changes not shown]GGSGGSGGSGGSGGSGGSGGSGGSGGSGGSGGSGGSGGSGGSGGSGGSGGSGGSGGSGGSLSNVKYNFARIIKYEFILNDALNQSIIRANDQYLTAAALHNLDEAVKFDMGAYKSSKDDAKITVILRISKTQLYVTAQDEDQPVLLKEMPEIPKTITGSETNLLFFWETHGTKNYFTSVAHPNLFIATKQDYWVCLAGGPPSITDFQILENQA
B4: CD8 VHH_5GGS_Fc_hole + Fc-knob_20GGS_IL1α delta 1-6_M15G (Fc fusion)
chain 1: DVQLQESGGGLVQPGGSLRLSCAASGSIFSINVMGWYRQTPGKERELVAKITNFGITSYADSAQGRFTISRGNAKNTVYLQMNSLKPEDTAVYYCNLDTTGWGPPPYQYWGQGTQVTVSSGGSGGSGGSGGSGGSDKTHTCPPCPAPEAAGGPSVFLFPPKPKDTLMISRTPEVTCVVVDVSHEDPEVKFNWYVDGVEVHNAKTKPREEQYNSTYRVVSVLTVLHQDWLNGKEYKCQVSNKALPAPIEKTISKAKGQPREPQVCTLPPSRDELTKNQVSLSCAVKGFYPSDIAVEWESNGQPENNYKTTPPVLDSDGSFFLVSKLTVDKSRWQQGNVFSCSVMHEALHNHYTQKSLSLSPGK
chain 2: [letters of human IgG1 Fc with changes not shown]GGSGGSGGSGGSGGSGGSGGSGGSGGSGGSGGSGGSGGSGGSGGSGGSGGSGGSGGSGGSLSNVKYNFGRIIKYEFILNDALNQSIIRANDQYLTAAALHNLDEAVKFDMGAYKSSKDDAKITVILRISKTQLYVTAQDEDQPVLLKEMPEIPKTITGSETNLLFFWETHGTKNYFTSVAHPNLFIATKQDYWVCLAGGPPSITDFQILENQA
B5: CD8 VHH_5GGS_Fc_hole + Fc-knob_20GGS_IL1α delta 1-6_R16A (Fc fusion)
chain 1: DVQLQESGGGLVQPGGSLRLSCAASGSIFSINVMGWYRQTPGKERELVAKITNFGITSYADSAQGRFTISRGNAKNTVYLQMNSLKPEDTAVYYCNLDTTGWGPPPYQYWGQGTQVTVSSGGSGGSGGSGGSGGSDKTHTCPPCPAPEAAGGPSVFLFPPKPKDTLMISRTPEVTCVVVDVSHEDPEVKFNWYVDGVEVHNAKTKPREEQYNSTYRVVSVLTVLHQDWLNGKEYKCQVSNKALPAPIEKTISKAKGQPREPQVCTLPPSRDELTKNQVSLSCAVKGFYPSDIAVEWESNGQPENNYKTTPPVLDSDGSFFLVSKLTVDKSRWQQGNVFSCSVMHEALHNHYTQKSLSLSPGK
chain 2: [letters of human IgG1 Fc with changes not shown]GGSGGSGGSGGSGGSGGSGGSGGSGGSGGSGGSGGSGGSGGSGGSGGSGGSGGSGGSGGSLSNVKYNFMAIIKYEFILNDALNQSIIRANDQYLTAAALHNLDEAVKFDMGAYKSSKDDAKITVILRISKTQLYVTAQDEDQPVLLKEMPEIPKTITGSETNLLFFWETHGTKNYFTSVAHPNLFIATKQDYWVCLAGGPPSITDFQILENQA
B6: CD8 VHH_5GGS_Fc_hole + Fc-knob_20GGS_IL1α delta 1-6_R16G (Fc fusion)
chain 1: DVQLQESGGGLVQPGGSLRLSCAASGSIFSINVMGWYRQTPGKERELVAKITNFGITSYADSAQGRFTISRGNAKNTVYLQMNSLKPEDTAVYYCNLDTTGWGPPPYQYWGQGTQVTVSSGGSGGSGGSGGSGGSDKTHTCPPCPAPEAAGGPSVFLFPPKPKDTLMISRTPEVTCVVVDVSHEDPEVKFNWYVDGVEVHNAKTKPREEQYNSTYRVVSVLTVLHQDWLNGKEYKCQVSNKALPAPIEKTISKAKGQPREPQVCTLPPSRDELTKNQVSLSCAVKGFYPSDIAVEWESNGQPENNYKTTPPVLDSDGSFFLVSKLTVDKSRWQQGNVFSCSVMHEALHNHYTQKSLSLSPGK
chain 2: [letters of human IgG1 Fc with changes not shown]GGSGGSGGSGGSGGSGGSGGSGGSGGSGGSGGSGGSGGSGGSGGSGGSGGSGGSGGSGGSLSNVKYNFMGIIKYEFILNDALNQSIIRANDQYLTAAALHNLDEAVKFDMGAYKSSKDDAKITVILRISKTQLYVTAQDEDQPVLLKEMPEIPKTITGSETNLLFFWETHGTKNYFTSVAHPNLFIATKQDYWVCLAGGPPSITDFQILENQA
B7: CD8 VHH_5GGS_Fc_hole + Fc-knob_20GGS_IL1α delta 1-6_I18A (Fc fusion)
chain 1: DVQLQESGGGLVQPGGSLRLSCAASGSIFSINVMGWYRQTPGKERELVAKITNFGITSYADSAQGRFTISRGNAKNTVYLQMNSLKPEDTAVYYCNLDTTGWGPPPYQYWGQGTQVTVSSGGSGGSGGSGGSGGSDKTHTCPPCPAPEAAGGPSVFLFPPKPKDTLMISRTPEVTCVVVDVSHEDPEVKFNWYVDGVEVHNAKTKPREEQYNSTYRVVSVLTVLHQDWLNGKEYKCQVSNKALPAPIEKTISKAKGQPREPQVCTLPPSRDELTKNQVSLSCAVKGFYPSDIAVEWESNGQPENNYKTTPPVLDSDGSFFLVSKLTVDKSRWQQGNVFSCSVMHEALHNHYTQKSLSLSPGK
chain 2: [letters of human IgG1 Fc with changes not shown]GGSGGSGGSGGSGGSGGSGGSGGSGGSGGSGGSGGSGGSGGSGGSGGSGGSGGSGGSGGSLSNVKYNFMRIAKYEFILNDALNQSIIRANDQYLTAAALHNLDEAVKFDMGAYKSSKDDAKITVILRISKTQLYVTAQDEDQPVLLKEMPEIPKTITGSETNLLFFWETHGTKNYFTSVAHPNLFIATKQDYWVCLAGGPPSITDFQILENQA

These binders were tested against T1, IL-1R (IL-1 Receptor) (assay: cell-based or functional assay).

Binder	EC50 mock transfected (NF-KB reporter, HEK293T)
B1	0.24 ng/mL

These binders were tested against human CD8 alpha (human, UniProt P01732 22-235) (assay: cell-based or functional assay).
Chain of UniProt P01732 (P01732 22-235): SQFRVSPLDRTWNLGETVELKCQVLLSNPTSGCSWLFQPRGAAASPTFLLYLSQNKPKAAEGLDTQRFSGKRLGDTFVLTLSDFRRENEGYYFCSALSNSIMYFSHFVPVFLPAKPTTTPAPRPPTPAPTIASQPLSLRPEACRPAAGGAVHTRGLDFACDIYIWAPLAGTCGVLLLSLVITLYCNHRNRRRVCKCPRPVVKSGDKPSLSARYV

Binder	EC50 CD8 transfected (NF-KB reporter, HEK293T)	Ratio (EC50 mock / CD8 transfected)
B1	6e-10 ng/mL	4e+08

Biological target: T1, IL-1R (IL-1 Receptor)
Assay: cell-based or functional assay
Remark: another data set of the same source

Binder	NF-KB signal, -CD8 cells, 1 ng/ml	NF-KB signal, -CD8 cells, 10 ng/ml	NF-KB signal, -CD8 cells, 100 ng/ml	NF-KB signal, -CD8 cells, 1000 ng/ml
B2	0.02 rel. to 100 ng/ml IL1α	0.04 rel. to 100 ng/ml IL1α	0.4 rel. to 100 ng/ml IL1α	
B3	0.01 rel. to 100 ng/ml IL1α	0.02 rel. to 100 ng/ml IL1α	0.08 rel. to 100 ng/ml IL1α	0.6 rel. to 100 ng/ml IL1α
B4	0.02 rel. to 100 ng/ml IL1α	0.02 rel. to 100 ng/ml IL1α	0.01 rel. to 100 ng/ml IL1α	0.06 rel. to 100 ng/ml IL1α
B5	0.02 rel. to 100 ng/ml IL1α	0.01 rel. to 100 ng/ml IL1α	0.03 rel. to 100 ng/ml IL1α	0.36 rel. to 100 ng/ml IL1α
B6	0.01 rel. to 100 ng/ml IL1α	0.02 rel. to 100 ng/ml IL1α	0.01 rel. to 100 ng/ml IL1α	0.02 rel. to 100 ng/ml IL1α
B7	0.01 rel. to 100 ng/ml IL1α	0.02 rel. to 100 ng/ml IL1α	0.04 rel. to 100 ng/ml IL1α	0.25 rel. to 100 ng/ml IL1α
